# Measured values: the supplement of paper PMC8728848
# The other results are listed elsewhere or left out.
# How the values were obtained:
# Experiment in all cases: glycan array binding signal (z-score within array); higher = stronger binding
# Details in all cases: glycan notation: IUPAC condensed, linker removed
# [1] = biological target: GlcNAc(b1-4)GlcNAc(b1-4)GlcNAc(b1-4)GlcNAc(b1-4)GlcNAc
# Outline: (§1)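 Glycan array binding is given as a within-array Z-score, which can be read as non-binding when negative. The arrays, 3228 of them, came from the Consortium for Functional Glycomics database and were retained only where the protein sequence was available. Z-scores were averaged across arrays of the same protein sequence at different concentrations or buffers and across linkers.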
# [2] = biological target: GlcNAc(b1-4)GlcNAc(b1-4)GlcNAc(b1-4)GlcNAc(b1-4)GlcNAc(b1-4)GlcNAc
# Outline: as §1
# [3] = biological target: GlcNAc(b1-4)[GlcNAc(b1-6)]GalNAc
# Outline: as §1
# [4] = biological target: GlcNAc(b1-6)Gal(b1-4)GlcNAc
# Outline: as §1
# GlcNAc(b1-6)GalNAc = biological target: GlcNAc(b1-6)GalNAc
# Outline: as §1
# Kdn(a2-3)Gal(b1-3)GlcNAc = biological target: Kdn(a2-3)Gal(b1-3)GlcNAc
# Outline: as §1
# Kdn(a2-3)Gal(b1-4)GlcNAc = biological target: Kdn(a2-3)Gal(b1-4)GlcNAc
# Outline: as §1
# [5] = biological target: Man(a1-2)Man(a1-2)Man(a1-3)Man
# Outline: as §1
# [6] = biological target: Man(a1-2)Man(a1-2)Man(a1-6)[Man(a1-3)]Man
# Outline: as §1
# Man(a1-2)Man(a1-3)Man = biological target: Man(a1-2)Man(a1-3)Man
# Outline: as §1
# [7] = biological target: Man(a1-2)Man(a1-3)[Man(a1-2)Man(a1-6)]Man
# Outline: as §1
# [8] = biological target: Man(a1-2)Man(a1-3)[Man(a1-2)Man(a1-6)]Man(a1-6)[Man(a1-2)Man(a1-2)Man(a1-3)]Man(b1-4)GlcNAc(b1-4)GlcNAc
# Outline: as §1
# [9] = biological target: Man(a1-2)Man(a1-3)[Man(a1-6)]Man(a1-6)[Man(a1-2)Man(a1-3)]Man(b1-4)GlcNAc(b1-4)GlcNAc
# Outline: as §1
# [10] = biological target: Man(a1-2)Man(a1-6)[Man(a1-3)]Man(a1-6)[Man(a1-2)Man(a1-2)Man(a1-3)]Man(b1-4)GlcNAc(b1-4)GlcNAc
# Outline: as §1
# Man(a1-3)[Man(a1-6)]Man = biological target: Man(a1-3)[Man(a1-6)]Man
# Outline: as §1
# [11] = biological target: Man(a1-3)[Man(a1-6)]Man(a1-6)[Man(a1-2)Man(a1-3)]Man(b1-4)GlcNAc(b1-4)GlcNAc
# Outline: as §1
# [12] = biological target: Man(a1-3)[Man(a1-6)]Man(a1-6)[Man(a1-3)]Man(b1-4)GlcNAc(b1-4)GlcNAc
# Outline: as §1
# [13] = biological target: Man(a1-3)[Man(a1-6)]Man(b1-4)GlcNAc(b1-4)GlcNAc
# Outline: as §1
# Man(b1-4)GlcNAc = biological target: Man(b1-4)GlcNAc
# Outline: as §1
# Neu5Ac(a2-3)Gal = biological target: Neu5Ac(a2-3)Gal
# Outline: as §1
# [14] = biological target: Neu5Ac(a2-3)Gal(b1-3)GalNAc
# Outline: as §1
# [15] = biological target: Neu5Ac(a2-3)Gal(b1-3)GalNAc(b1-3)Gal(a1-4)Gal(b1-4)Glc
# Outline: as §1
# [16] = biological target: Neu5Ac(a2-3)Gal(b1-3)GalNAc(b1-3)Gal(b1-4)GlcNAc
# Outline: as §1
# [17] = biological target: Neu5Ac(a2-3)Gal(b1-3)GalNAc(b1-4)[Neu5Ac(a2-3)]Gal(b1-4)Glc
# Outline: as §1
# [18] = biological target: Neu5Ac(a2-3)Gal(b1-3)GalNAc6S
# Outline: as §1
# [19] = biological target: Neu5Ac(a2-3)Gal(b1-3)GlcNAc
# Outline: as §1
# [20] = biological target: Neu5Ac(a2-3)Gal(b1-3)GlcNAc6S
# Outline: as §1
# [21] = biological target: Neu5Ac(a2-3)Gal(b1-3)[Fuc(a1-4)]GlcNAc
# Outline: as §1
# [22] = biological target: Neu5Ac(a2-3)Gal(b1-3)[Fuc(a1-4)]GlcNAc(b1-3)Gal(b1-4)[Fuc(a1-3)]GlcNAc
# Outline: as §1
# [23] = biological target: Neu5Ac(a2-3)Gal(b1-3)[Neu5Ac(a2-3)Gal(b1-4)]GlcNAc
# Outline: as §1
# [24] = biological target: Neu5Ac(a2-3)Gal(b1-3)[Neu5Ac(a2-6)]GalNAc
# Outline: as §1
# Neu5Ac(a2-3)Gal(b1-4)Glc = biological target: Neu5Ac(a2-3)Gal(b1-4)Glc
# Outline: as §1
# [25] = biological target: Neu5Ac(a2-3)Gal(b1-4)GlcNAc
# Outline: as §1
# [26] = biological target: Neu5Ac(a2-3)Gal(b1-4)GlcNAc(b1-2)Man(a1-3)[Neu5Ac(a2-3)Gal(b1-4)GlcNAc(b1-2)Man(a1-6)]Man(b1-4)GlcNAc(b1-4)GlcNAc
# Outline: as §1
# [27] = biological target: Neu5Ac(a2-3)Gal(b1-4)GlcNAc(b1-3)Gal(b1-4)GlcNAc
# Outline: as §1
# [28] = biological target: Neu5Ac(a2-3)Gal(b1-4)GlcNAc(b1-3)Gal(b1-4)GlcNAc(b1-3)Gal(b1-4)GlcNAc
# Outline: as §1
# [29] = biological target: Neu5Ac(a2-3)Gal(b1-4)GlcNAc(b1-3)Gal(b1-4)[Fuc(a1-3)]GlcNAc
# Outline: as §1
binder,measurement,setting,value
RS-IIL (Ralstonia solanacearum) (protein) AQQGVFTLPANTSFGVTAFANAANTQTIQVLVDNVVKATFTGSGTSDKLLGSQVLNSGSGAIKIQVSVNGKPSDLVSNQTILANKLNFAMVGSEDGTDNDYNDGIAVLNWPLG,glycan array binding signal (z-score),[1],-0.388
same,glycan array binding signal (z-score),[2],-0.389
same,glycan array binding signal (z-score),[3],-0.389
same,glycan array binding signal (z-score),[4],-0.377
same,glycan array binding signal (z-score),GlcNAc(b1-6)GalNAc,-0.388
same,glycan array binding signal (z-score),Kdn(a2-3)Gal(b1-3)GlcNAc,-0.389
same,glycan array binding signal (z-score),Kdn(a2-3)Gal(b1-4)GlcNAc,-0.378
same,glycan array binding signal (z-score),[5],4.58
same,glycan array binding signal (z-score),[6],5.58
same,glycan array binding signal (z-score),Man(a1-2)Man(a1-3)Man,3.63
same,glycan array binding signal (z-score),[7],4.47
same,glycan array binding signal (z-score),[8],2.68
same,glycan array binding signal (z-score),[9],4.71
same,glycan array binding signal (z-score),[10],2.99
same,glycan array binding signal (z-score),Man(a1-3)[Man(a1-6)]Man,3.39
same,glycan array binding signal (z-score),[11],3.46
same,glycan array binding signal (z-score),[12],3.48
same,glycan array binding signal (z-score),[13],4.76
same,glycan array binding signal (z-score),Man(b1-4)GlcNAc,0.639
same,glycan array binding signal (z-score),Neu5Ac(a2-3)Gal,-0.388
same,glycan array binding signal (z-score),[14],-0.389
same,glycan array binding signal (z-score),[15],-0.386
same,glycan array binding signal (z-score),[16],-0.372
same,glycan array binding signal (z-score),[17],-0.377
same,glycan array binding signal (z-score),[18],-0.389
same,glycan array binding signal (z-score),[19],-0.388
same,glycan array binding signal (z-score),[20],-0.387
same,glycan array binding signal (z-score),[21],0.411
same,glycan array binding signal (z-score),[22],0.541
same,glycan array binding signal (z-score),[23],-0.389
same,glycan array binding signal (z-score),[24],-0.389
same,glycan array binding signal (z-score),Neu5Ac(a2-3)Gal(b1-4)Glc,-0.388
same,glycan array binding signal (z-score),[25],-0.387
same,glycan array binding signal (z-score),[26],-0.353
same,glycan array binding signal (z-score),[27],-0.349
same,glycan array binding signal (z-score),[28],-0.389
same,glycan array binding signal (z-score),[29],-0.388
